Among all 340,000 compounds or so, about 12,000 (3.5%) were called active. Inconclusive results, whose numbers are uncertain, are shown with a selection of clear calls. The call rests on the fitted dose curve; in most records, active means well fitted inhibition curve with a large enough effect; inconclusive means small, poorly fitted or top-dose-only effect, or another doubt; inactive means no such curve, though single readings can be large or run the other way. Potencies of inconclusive entries are left out as doubtful fits.
Assay: qHTS Assay for Inhibitors of Hepatitis C Virus (HCV)
Conditions: Huh7.5.1 HCVcc-Cre (HCVcc is cell-culture hepatitis C virus) infection, luciferase reporter, 44 h; series mostly up to 41.8 µM
Method in brief: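 Cells (1,000/well) were plated 4 h before compound, then infected with HCVcc-Cre virus (~0.5 moi). After 44 h further culture, infection was read as luciferase luminescence following a 15 min substrate incubation at room temperature.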
With `C=CCn1c(C)cc(C(=O)CSc2nnc(Cc3ccccc3)o2)c1C` the Potency was inconclusive [inhibitor, partial curve].
With `O=C(c1ccco1)c1cn(CC(=O)N2CCCCCC2)c2ccccc12` the Potency was “inactive”.
With `COc1ccc(CCNCc2csc3nc4ccccc4n23)cc1OC` the Potency was inconclusive [inhibitor, partial curve].
In the case of `O=C(c1cc2cc(F)ccc2[nH]1)N1CCN(Cc2ccc3c(c2)OCO3)CC1`, the Potency is reported as inconclusive [inhibitor, single point].
For `CCN(CC)CCCn1c2c(c(SCC(=O)Nc3ccc(C)c(F)c3)nc1=O)CCC2`, the Potency was inconclusive [inhibitor, partial curve].
With `Clc1ccc2c(c1)C(OC1CN3CCC1CC3)c1ccccc1CS2` (centres undefined) the Potency was active: 10 µM.
For `CN(C)c1ccc(/C=N/NC(=O)COc2ccccc2)cc1`, the Potency was “inactive”.
For `O=C(COc1ccc(F)cc1Cl)Nc1cccc(S(=O)(=O)N2CCCCCC2)c1`, the Potency was inconclusive [inhibitor, full curve, poor fit].
In the case of `COCC(=O)NC1CCN(CC(=O)Nc2ccc(OC)cc2[N+](=O)[O-])CC1`, the Potency is reported as “inactive”.
With `COc1ccccc1NCC(=O)N/N=C/c1c(O)ccc2ccccc12` the Potency was active: 2.82 µM.
With `OC(c1ccccc1)(c1ccccc1)c1ncc[nH]1` the Potency was inconclusive [inhibitor, single point].
In the case of `Nn1cc(-c2ccccc2)nc1SCC(=O)NCCc1ccccc1`, the Potency is reported as inconclusive [inhibitor, single point].
With `N#CC1=C(N)C(C#N)(C#N)[C@H](c2ccncc2)[C@H]2CN(C(=O)OCc3ccccc3)CC=C12` the Potency was “inactive”.
In the case of `CCn1cc(C(=O)NCc2ccco2)c(=O)c2cc(S(=O)(=O)N3CC(C)CC(C)C3)ccc21` (centres undefined), the Potency is reported as inconclusive [inhibitor, single point].
For `Nc1ncnc2c1ncn2[C@@H]1O[C@H](COP(=O)(O)CP(=O)(O)O)[C@@H](O)[C@H]1O`, the Potency was “inactive”.
With `COc1ccc2c(/C=N/NS(=O)(=O)c3ccc(C)cc3)c[nH]c2c1` the Potency was inconclusive [inhibitor, partial curve].
In the case of `COc1cccc(-c2nc(CS(=O)(=O)CC(=O)NC3CCCc4ccccc43)c(C)o2)c1` (centres undefined), the Potency is reported as active: 11.2 µM.
In the case of `CCOC(=O)C1=C(C)N(C)C(C)=C(C(=O)OCC)C1c1ccccn1`, the Potency is reported as inconclusive [inhibitor, single point].
With `CC(=O)N1CCCN(C(=O)c2ccc3nc(Cc4ccccc4F)oc3c2)CC1` the Potency was “inactive”.
For `CCN=C(NC#N)SCc1c(F)cccc1Cl`, the Potency was inconclusive [inhibitor, single point].
For `COC(=O)c1ccc(C2NC(=S)N(c3ccccc3)C(C)=C2C(=O)Nc2ccccc2OC)cc1` (centres undefined), the Potency was inconclusive [inhibitor, partial curve, poor fit].
With `Cc1ccc(S(=O)(=O)N(C)C)cc1-n1c(SCC(=O)Nc2ccccc2)nc2ccccc2c1=O` the Potency was inconclusive [inhibitor, partial curve].
For `Cc1cc(Cl)cc(C)c1OCCCCN1CCOCC1`, the Potency was inconclusive [inhibitor, single point].
In the case of `Cc1ccc(-c2nn(C(C)(C)C)c3ncnc(NS(=O)(=O)c4ccc([N+](=O)[O-])cc4)c23)cc1`, the Potency is reported as inconclusive [inhibitor, partial curve, poor fit].
For `COc1cccc2c1C(=O)c1c(O)c3c(c(O)c1C2=O)CC(O)(C(C)=NO)CC3OC1CC(N)C(O)C(C)O1` (centres undefined), the Potency was inconclusive [inhibitor, full curve].
With `O=c1c2ccccc2nc(N/N=C/c2c(O)ccc3ccccc23)n1O` the Potency was active: 0.891 µM.
With `CN1/C(=C/C=C(C#N)C#N)C=Cc2ccccc21` the Potency was inconclusive [inhibitor, single point].
With `c1cncc(N=c2scc(-c3cccc4ccccc34)n2CCCn2ccnc2)c1` the Potency was inconclusive [inhibitor, single point].
For `Cc1cc(C)nc(N2CCCC(C(=O)Nc3ccc4nc(C)c(C)nc4c3)C2)n1` (centres undefined), the Potency was active: 5.62 µM.
For `COc1ccc(-n2c(=S)[nH]c3cc(C(=O)N4CCN(c5ccccc5)CC4)ccc3c2=O)cc1`, the Potency was inconclusive [inhibitor, single point].
With `Cc1ccc(Sc2ncccc2O)cc1` the Potency was “inactive”.
For `O=[N+]([O-])c1cccc(S(=O)(=O)Nc2ccc3cn[nH]c3c2)c1`, the Potency was “inactive”.
In the case of `c1ccc(CCNc2ncnc3c2cnn3-c2ccccc2)cc1`, the Potency is reported as inconclusive [inhibitor, single point].
For `CCN(Cc1nc2cc(Cl)ccc2c(=O)[nH]1)C(=O)c1cc(C2CC2)nn1-c1ccccc1`, the Potency was “inactive”.
For `COC(=O)Cn1cnc2c(cnn2-c2ccccc2)c1=O`, the Potency was “inactive”.
In the case of `Cc1ccc(S(=O)(=O)n2ccc(-c3cccc(OCc4c(F)cccc4Cl)c3)n2)cc1`, the Potency is reported as inconclusive [inhibitor, partial curve].
For `Cc1ccc(C(=O)CSc2nnc(C)s2)cc1`, the Potency was “inactive”.
With `COc1ccc(C(=O)C(CCC(CNC(C)(C)C)C(=O)c2ccc(OC)cc2)CNC(C)(C)C)cc1` (centres undefined) the Potency was inconclusive [inhibitor, full curve, poor fit].
In the case of `O=C(O)C(Cc1ccccc1)N1CCS(=O)(=O)CC1` (centres undefined), the Potency is reported as “inactive”.
With `CCCCC(CC)C(=O)Oc1ccc(O)c(C(C)(C)C)c1` (centres undefined) the Potency was inconclusive [inhibitor, single point].
For `COc1cc(OC)c(C(=O)OCC(=O)Nc2nnc(-c3ccccc3)o2)cc1OC`, the Potency was “inactive”.
With `CCCCN(CCCC)C(=S)NC(=O)c1ccccc1Cl` the Potency was “inactive”.
With `COc1ccc(S(=O)(=O)Nc2ncccc2C)c2ccccc12` the Potency was inconclusive [inhibitor, single point].
With `CC(C)c1cc(C(C)C)c(S(=O)(=O)N2c3ccccc3[C@@]3(Br)C[C@H]4C(=O)N[C@@H](Cc5ccccc5)C(=O)N4[C@@H]23)c(C(C)C)c1` the Potency was inconclusive [inhibitor, partial curve].
In the case of `CCc1cc(=O)[nH]c(SCC(=O)N2CCCC2)n1`, the Potency is reported as “inactive”.
In the case of `O=C(/C=C/c1ccccc1)c1cc(Br)ccc(=O)c1O`, the Potency is reported as inconclusive [inhibitor, single point].
For `COCCNc1nnc(SC(C)C(=O)Nc2ccc(-c3nc4ccc(C)cc4s3)cc2)s1` (centres undefined), the Potency was active: 6.31 µM.
For `COc1ccc2sc(-c3ccccc3OC)c(-c3ccc(OCCN(C)C)cc3)c2c1`, the Potency was active: 10 µM.
For `CC(C)NC(=O)c1onc(CSc2ccc(Cl)cc2)c1C(=O)NC(C)C`, the Potency was inconclusive [inhibitor, partial curve].
With `COc1ccc(O)c(C(=O)c2cc(SCC(=O)O)c3nc4sc5c(c4c(=O)n3c2)CCCC5)c1` the Potency was inconclusive [inhibitor, single point].
For `Cc1ccc(CNC(=O)C(Cc2ccccc2)NS(=O)(=O)c2ccc(Br)s2)cc1` (centres undefined), the Potency was inconclusive [inhibitor, single point].
In the case of `CC1Sc2ccc(C(=O)OCc3ccccc3Cl)cc2NC1=O` (centres undefined), the Potency is reported as inconclusive [inhibitor, full curve, poor fit].
With `CC(C)C[C@H]1CN=C(Nc2ccccc2)N1CC1CCC(C)CC1` (some centres undefined) the Potency was “inactive”.
For `COc1ccccc1NC(=O)c1ccc2nc(-c3ccccc3)c(-c3ccccc3)nc2c1`, the Potency was inconclusive [inhibitor, partial curve].
With `OCCCn1c(C(CO)Nc2nc(-c3ccc(Cl)cc3)cs2)nc2ccccc21` (centres undefined) the Potency was inconclusive [inhibitor, partial curve].
With `O=C(CCCNC(=O)c1ccc(Cl)cc1)Nc1ccc(Br)cc1` the Potency was inconclusive [inhibitor, single point].
For `CCOc1cc(/C=N\Nc2nc(Nc3ccccc3)nc(N3CCOCC3)n2)ccc1OC(=O)c1ccco1`, the Potency was inconclusive [inhibitor, single point].
In the case of `O=[N+]([O-])c1ccc(Sc2ccccn2)nc1`, the Potency is reported as “inactive”.
For `CCOc1cc(C)ccc1OCc1nnc(SCC(=O)c2cccc([N+](=O)[O-])c2)n1CC`, the Potency was inconclusive [inhibitor, full curve, poor fit].
In the case of `CCN(Cc1nc2ccccc2c(=O)[nH]1)C(=O)c1ccc(C)c(NC(=O)c2ccco2)c1`, the Potency is reported as “inactive”.
With `CCN(C(=O)CSc1nc(C)nc2sc3c(c12)CCC3)C1CCS(=O)(=O)C1` (centres undefined) the Potency was “inactive”.
In the case of `Cc1ccc(-c2cc(C(=O)Nc3nccs3)c3ccccc3n2)c(C)c1`, the Potency is reported as active: 10 µM.
In the case of `CC[C@@]12C(=O)N(c3cccc(Br)c3)C(=O)N1[C@H](c1cccc(C)c1)[C@@H]1C(=O)N(Cc3ccccc3)C(=O)[C@@H]12`, the Potency is reported as “inactive”.
With `CCN(CC)CCNC(=O)CCc1c(C)nc2c(c(C)nn2-c2ccc(C)cc2)c1C` the Potency was active: 3.55 µM.
With `OCCC1CN(Cc2cccc(OC3CCCC3)c2)CCN1Cc1ccsc1` (centres undefined) the Potency was inconclusive [inhibitor, single point].
With `O=C(NC1CCCCC1)C(c1cccs1)N(C(=O)c1ccco1)c1ccc2c(c1)OCCO2` (centres undefined) the Potency was inconclusive [inhibitor, partial curve].
For `CCCN1C(=O)c2cc(C(=O)Nc3cccc(C(C)=O)c3)ccc2C1Nc1cccc(C(C)=O)c1` (centres undefined), the Potency was inconclusive [inhibitor, partial curve].
With `COc1ccc(-c2nc(CSCC(=O)N3CCc4ccccc43)c(C)o2)cc1OC` the Potency was inconclusive [inhibitor, partial curve].
In the case of `COc1ccc(OC)c(-n2c(-c3cccc(S(=O)(=O)N(C)C)c3)n[nH]c2=S)c1`, the Potency is reported as “inactive”.
Potency means the concentration at half of the fitted maximal effect; tags describe the fitted curve by direction and shape.
